Experimental data from the supplement of paper PMC11166567.
The list shows a part of the results.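 How the source made its calls: active = permutation test q below 0.05 after Benjamini-Hochberg correction; inactive = q of 0.05 or more.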

test system: A549; assay: mean average precision of replicate retrieval against DMSO controls (Cell Painting phenotypic activity) (fraction (0-1)); higher = stronger, more reproducible morphological phenotype distinct from DMSO; extreme values may be limits of the assay; details: 24 h; 5 µM
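Further: cosine similarity of well-level aggregated Cell Painting profiles ranks each compound's replicate wells against DMSO wells, four replicate plates, significance from 100,000 rank shuffles.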

SMILES | mean average precision
NC(=NCc1ccccc1)NC(=O)c1nc(Cl)c(N)nc1N | active: 0.399
N#CC[C@H](C1CCCC1)n1cc(-c2ncnc3[nH]ccc23)cn1 | active: 0.605
CN[C@H]1C(=O)N[C@@H]2Cc3ccc(cc3)Oc3cc4cc(c3O[C@@H]3O[C@H](C(=O)O)[C@@H](O)[C@H](O)[C@H]3NC(=O)CCCCCCCCC(C)C)Oc3ccc(cc3Cl)[C@@H](O)[C@@H]3NC(=O)[C@H](NC(=O)[C@@H]4NC(=O)[C@@H](NC2=O)c2cc(cc(O)c2Cl)Oc2cc1ccc2O)c1ccc(O)c(c1)-c1c(O[C@H]2O[C@H](CO)[C@@H](O)[C@H](O)[C@@H]2O)cc(O)cc1[C@@H](C(=O)NCCCN(C)C)NC3=O | inactive: 0.153
NC(=O)N1CCC(CC(=O)N2CCC([C@H]3c4ncc(Br)cc4CCc4cc(Cl)cc(Br)c43)CC2)CC1 | active: 1
OC[C@H]1O[C@@H](n2cnc3c(NC4CCCC4)ncnc32)[C@H](O)[C@@H]1O | inactive: 0.103
CN1CCc2nc(C(=O)N[C@H]3C[C@H](C(=O)N(C)C)CC[C@@H]3NC(=O)C(=O)Nc3ccc(Cl)cn3)sc2C1 | inactive: 0.12
OC[C@H]1O[C@@H](Oc2cc(O)cc(/C=C/c3ccc(O)cc3)c2)[C@H](O)[C@@H](O)[C@@H]1O | active: 1
CC(C)[C@H]1c2ccc(F)cc2CC[C@@]1(CCN(C)CCCc1nc2ccccc2[nH]1)OC(=O)C1CC1 | active: 1
O=C(CCNNC(=O)c1ccncc1)NCc1ccccc1 | active: 0.33
O=C(O)CC(O)(CC(=O)O)C(=O)O | inactive: 0.296
CC(NC(=O)CCc1nc2ccccc2c(=O)[nH]1)c1ccccc1 (stereo unspecified) | active: 0.623
COC(=O)C1=C(C)NC(C)=C(C(=O)OC(C)(C)CN(C)CCC(c2ccccc2)c2ccccc2)C1c1cccc([N+](=O)[O-])c1 (stereo unspecified) | active: 0.537
Cc1ccc(C(=O)Nc2ccc(CN3CCN(C)CC3)c(C(F)(F)F)c2)cc1C#Cc1cnc2cccnn12 | active: 1
CCCCC[C@H](O)/C=C/[C@H]1[C@H](O)CC(=O)[C@@H]1C/C=C\CCCC(=O)O | inactive: 0.219
CCCCC[C@H](O)/C=C/[C@@H]1[C@H]2C/C(=C/CCCC(=O)O)O[C@H]2C[C@H]1O | inactive: 0.175
CC(=O)N[C@@H](CS)C(=O)O | active: 0.439

SMILES | mean average precision
Cc1cc(-c2nc(-c3ccc(OC(F)(F)F)cc3)no2)nn1Cc1ccnc(N2CCN(C3CC3)CC2)c1 | active: 0.757
O=C(O)CN1C(=O)c2cccc3cccc(c23)C1=O | active: 0.335
C=C(NC(=O)C(=C)NC(=O)c1csc(C2=N[C@@H]3c4csc(n4)[C@H]4NC(=O)c5csc(n5)[C@H]([C@](C)(O)[C@@H](C)O)NC(=O)[C@H]5CSC(=N5)/C(=C/C)NC(=O)[C@H]([C@@H](C)O)NC(=O)c5csc(n5)[C@]3(CC2)NC(=O)[C@H](C)NC(=O)C(=C)NC(=O)[C@H](C)NC(=O)[C@H]([C@@H](C)CC)N[C@@H]2C=Cc3c([C@H](C)O)cc(nc3[C@H]2O)C(=O)O[C@@H]4C)n1)C(N)=O | active: 1
CC(C)C(=O)c1c(C(C)C)nn2ccccc12 | active: 0.338
O=C(NCCS(=O)(=O)c1ccc(C(F)(F)F)cn1)c1ccc(Cl)cc1 | active: 0.428
Cc1nc2n(c(=O)c1CCN1CCC(c3noc4cc(F)ccc34)CC1)CCCC2O (stereo unspecified) | inactive: 0.302
C/C=C(/C)C(=O)O[C@H]1C(C)=C[C@]23C(=O)[C@@H](C=C(CO)[C@@H](O)[C@]12O)[C@H]1[C@@H](C[C@H]3C)C1(C)C | active: 1
Cc1cc(Cl)ccc1OCCCC(=O)NO | active: 0.569
NCC(=O)Nc1ccc(-n2nc(C(F)(F)F)cc2-c2ccc3c(ccc4ccccc43)c2)cc1 | active: 1
Cc1ccc(/C=C2\CNC/C(=C\c3ccc(C)cc3)C2=O)cc1 | active: 1
CC(C)(C)n1nc(-c2ccc(Cl)cc2)c2c(N)ncnc21 | active: 1
Cc1c(C)c2c(c(C)c1O)CC[C@@](C)(CCC[C@H](C)CCC[C@H](C)CCCC(C)C)O2 | inactive: 0.252
CCOC(=O)Nc1ccc(NCc2ccc(F)cc2)nc1N | active: 0.606
O=C1NC(=O)c2cc(Nc3ccc(F)cc3)c(Nc3ccc(F)cc3)cc21 | inactive: 0.259
CC(C)c1cc(-c2n[nH]c(=O)n2-c2ccc3c(ccn3C)c2)c(O)cc1O | active: 1
